The values that follow come from PMC11763304.

Chains of the proteins cited; added tags and fusions are not shown. Lines headed by an entry give the natural chain unless they say otherwise; changes in a name come on top. Residues count along the entry.
UniProt Q14457: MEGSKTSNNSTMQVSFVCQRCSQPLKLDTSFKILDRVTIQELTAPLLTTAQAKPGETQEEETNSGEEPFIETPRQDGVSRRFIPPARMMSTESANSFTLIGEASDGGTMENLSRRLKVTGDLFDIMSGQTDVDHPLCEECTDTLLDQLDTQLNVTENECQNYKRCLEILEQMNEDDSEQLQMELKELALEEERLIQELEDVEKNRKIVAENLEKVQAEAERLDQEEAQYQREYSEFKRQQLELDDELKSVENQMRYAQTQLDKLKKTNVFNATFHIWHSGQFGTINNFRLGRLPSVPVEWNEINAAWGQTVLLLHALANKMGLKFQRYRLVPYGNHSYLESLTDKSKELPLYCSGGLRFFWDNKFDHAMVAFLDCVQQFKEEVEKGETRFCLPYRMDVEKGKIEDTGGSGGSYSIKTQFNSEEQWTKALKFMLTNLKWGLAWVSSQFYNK
GST-Beclin 1^141–450 (which lacks the BH3 domain): residues 141-450 of Q14457
GST-Beclin 1^248–450 (which lacks both the BH3 and coiled-coil (CC) domains): residues 248-450 of Q14457
GST-Beclin 1^350–450 (which consists of the BARA domain): residues 350-450 of Q14457
GST-Beclin 1^350–400: residues 350-400 of Q14457
GST-Beclin 1^400–450: residues 400-450 of Q14457
UniProt Q91XJ1: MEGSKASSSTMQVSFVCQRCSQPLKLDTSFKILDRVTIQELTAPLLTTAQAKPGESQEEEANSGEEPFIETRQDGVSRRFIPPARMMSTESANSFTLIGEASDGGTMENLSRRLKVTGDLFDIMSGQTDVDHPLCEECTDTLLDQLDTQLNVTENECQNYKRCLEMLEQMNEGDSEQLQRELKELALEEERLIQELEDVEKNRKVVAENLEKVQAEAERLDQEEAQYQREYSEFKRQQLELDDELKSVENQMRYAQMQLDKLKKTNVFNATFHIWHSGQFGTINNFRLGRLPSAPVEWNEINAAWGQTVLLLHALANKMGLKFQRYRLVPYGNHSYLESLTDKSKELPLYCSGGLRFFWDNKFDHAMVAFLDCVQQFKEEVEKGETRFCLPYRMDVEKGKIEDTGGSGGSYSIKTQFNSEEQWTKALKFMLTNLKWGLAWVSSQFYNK
UniProt Q8NEB9: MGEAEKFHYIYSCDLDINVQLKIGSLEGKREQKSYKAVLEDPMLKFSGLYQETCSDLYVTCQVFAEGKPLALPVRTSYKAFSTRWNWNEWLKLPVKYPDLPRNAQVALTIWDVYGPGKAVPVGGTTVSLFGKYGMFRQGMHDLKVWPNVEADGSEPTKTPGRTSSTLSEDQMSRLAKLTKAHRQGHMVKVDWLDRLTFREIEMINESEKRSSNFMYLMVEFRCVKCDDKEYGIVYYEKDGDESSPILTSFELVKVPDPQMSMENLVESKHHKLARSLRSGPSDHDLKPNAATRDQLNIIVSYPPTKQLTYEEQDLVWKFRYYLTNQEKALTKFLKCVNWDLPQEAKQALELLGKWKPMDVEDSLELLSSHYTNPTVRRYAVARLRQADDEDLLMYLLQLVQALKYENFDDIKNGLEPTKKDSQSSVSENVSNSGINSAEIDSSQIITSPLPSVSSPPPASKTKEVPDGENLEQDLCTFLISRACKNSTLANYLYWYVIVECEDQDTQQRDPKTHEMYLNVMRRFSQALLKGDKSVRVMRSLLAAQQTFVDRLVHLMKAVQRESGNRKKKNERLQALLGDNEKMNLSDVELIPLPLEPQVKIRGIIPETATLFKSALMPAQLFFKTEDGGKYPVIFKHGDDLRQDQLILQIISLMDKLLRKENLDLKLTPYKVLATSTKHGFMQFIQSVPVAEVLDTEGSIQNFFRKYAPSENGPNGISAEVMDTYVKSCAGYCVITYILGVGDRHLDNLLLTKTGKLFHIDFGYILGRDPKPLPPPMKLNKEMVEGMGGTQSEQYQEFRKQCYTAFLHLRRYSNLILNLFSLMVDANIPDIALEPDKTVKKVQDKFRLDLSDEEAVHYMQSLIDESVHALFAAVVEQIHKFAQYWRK
UniProt Q6ZNE5: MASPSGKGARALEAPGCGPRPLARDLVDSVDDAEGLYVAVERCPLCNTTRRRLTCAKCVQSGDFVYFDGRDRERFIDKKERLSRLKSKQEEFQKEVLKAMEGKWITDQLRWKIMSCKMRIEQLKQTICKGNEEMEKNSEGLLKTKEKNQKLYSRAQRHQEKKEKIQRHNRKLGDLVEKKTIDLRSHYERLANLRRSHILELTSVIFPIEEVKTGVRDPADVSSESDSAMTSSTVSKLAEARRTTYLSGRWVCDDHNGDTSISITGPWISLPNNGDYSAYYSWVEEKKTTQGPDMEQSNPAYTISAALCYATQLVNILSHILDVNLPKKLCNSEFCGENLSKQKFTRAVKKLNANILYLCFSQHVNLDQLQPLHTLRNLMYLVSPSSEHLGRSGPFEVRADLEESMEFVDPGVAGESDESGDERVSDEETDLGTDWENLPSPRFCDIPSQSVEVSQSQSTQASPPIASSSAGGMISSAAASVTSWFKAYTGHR
UniProt Q99570: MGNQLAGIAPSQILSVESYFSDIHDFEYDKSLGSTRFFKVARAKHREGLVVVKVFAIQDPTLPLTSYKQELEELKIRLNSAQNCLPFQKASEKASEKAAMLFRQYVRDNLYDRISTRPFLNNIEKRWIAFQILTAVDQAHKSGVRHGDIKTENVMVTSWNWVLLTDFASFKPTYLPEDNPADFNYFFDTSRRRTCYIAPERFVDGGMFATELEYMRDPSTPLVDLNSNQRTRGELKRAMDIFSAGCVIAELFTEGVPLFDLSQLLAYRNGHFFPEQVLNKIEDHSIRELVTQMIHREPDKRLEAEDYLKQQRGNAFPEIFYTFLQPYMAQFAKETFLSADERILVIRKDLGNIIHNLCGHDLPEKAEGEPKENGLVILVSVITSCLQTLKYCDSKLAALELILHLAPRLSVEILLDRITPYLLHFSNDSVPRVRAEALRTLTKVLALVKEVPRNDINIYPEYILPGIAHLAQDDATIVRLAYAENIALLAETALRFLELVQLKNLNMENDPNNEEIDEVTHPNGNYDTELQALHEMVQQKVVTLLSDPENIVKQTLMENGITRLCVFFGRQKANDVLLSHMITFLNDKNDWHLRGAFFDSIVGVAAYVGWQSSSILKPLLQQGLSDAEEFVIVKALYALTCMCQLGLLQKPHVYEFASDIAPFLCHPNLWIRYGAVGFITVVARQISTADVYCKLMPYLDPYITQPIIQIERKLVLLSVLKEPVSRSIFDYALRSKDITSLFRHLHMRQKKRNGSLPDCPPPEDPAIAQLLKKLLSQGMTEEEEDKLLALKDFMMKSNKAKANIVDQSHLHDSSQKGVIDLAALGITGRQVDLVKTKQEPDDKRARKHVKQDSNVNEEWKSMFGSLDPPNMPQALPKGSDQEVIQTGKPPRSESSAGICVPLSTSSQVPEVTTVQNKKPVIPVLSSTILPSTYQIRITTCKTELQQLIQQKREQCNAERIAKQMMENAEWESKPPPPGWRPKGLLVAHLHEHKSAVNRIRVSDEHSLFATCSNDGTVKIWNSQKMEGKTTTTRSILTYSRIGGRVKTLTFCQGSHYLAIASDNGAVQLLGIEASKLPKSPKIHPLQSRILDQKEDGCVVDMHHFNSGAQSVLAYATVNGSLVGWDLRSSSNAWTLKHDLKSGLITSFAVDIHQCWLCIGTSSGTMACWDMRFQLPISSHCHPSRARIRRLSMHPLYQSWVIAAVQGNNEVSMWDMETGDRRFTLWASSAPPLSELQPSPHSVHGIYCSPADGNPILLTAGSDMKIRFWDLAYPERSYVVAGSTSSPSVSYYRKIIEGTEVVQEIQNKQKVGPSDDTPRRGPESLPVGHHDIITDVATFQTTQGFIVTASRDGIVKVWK

In test [1] the target is FLAG-tagged Beclin 1 (UniProt Q14457). Kind of test: co-IP; HEK293 cells co-transfected; bait immunoprecipitated from cleared lysate with anti-FLAG (M2) or anti-HA (12CA5) overnight at 4 °C, Protein A agarose; control mouse IgG; FE65 detected with anti-FE65 (E20) or anti-myc.
For test [2], the target named is Beclin 1, endogenous in rat brain (rat (endogenous in rat brain)) (UniProt Q91XJ1). In words: co-IP; rat brain lysate; endogenous Beclin 1 immunoprecipitated with anti-Beclin 1 (Proteintech); FE65 detected with anti-FE65 (E20).
Test [3] has as its target FLAG-tagged Beclin 1 (UniProt Q14457). In words: proximity ligation; Duolink in situ PLA in transfected, fixed HEK293 cells; goat anti-FE65 (E20) and mouse anti-FLAG (M2); PLA signals per cell.
For another test, the target named is GST-Beclin 1 (UniProt Q14457). Kind of test: pull-down; bacterially expressed, purified GST-tagged bait on glutathione-Sepharose 4B, incubated in transfected cell lysate overnight at 4 °C; lysis buffer 50 mM Tris-HCl pH 7.5, 150 mM NaCl, 1 mM EDTA, 1% Triton X-100; three washes; Western blot; only the target purified. Background: A western blot detects proteins with antibodies after separation by electrophoresis.

A further test has as its target GST-Beclin 1^400–450 (UniProt Q14457). Described as above.
For test [4], the target named is GST-Beclin 1^141–450 (which lacks the BH3 domain) (UniProt Q14457). The description is as above.
The target of a further test is GST-Beclin 1^350–400 (UniProt Q14457). The description is as above.
The target of test [5] is GST-Beclin 1^350–450 (which consists of the BARA domain) (UniProt Q14457). Described as above.
The target of test [6] is GST-Beclin 1^248–450 (which lacks both the BH3 and coiled-coil (CC) domains) (UniProt Q14457). The test is described as above.
For a further test, the target named is HA-VPS34 (UniProt Q8NEB9). Kind of test: co-IP; HEK293 cells co-transfected; bait immunoprecipitated from cleared lysate with anti-FLAG (M2) or anti-HA (12CA5) overnight at 4 °C, Protein A agarose; control mouse IgG; FE65 detected with anti-FE65 (E20) or anti-myc.
A further test concerns the target FLAG-ATG14L (UniProt Q6ZNE5). The description is as above.
For a further test, the target named is FLAG-VPS15 (UniProt Q99570). Described as above.

Results are given in words; binding and its absence hold for the method and conditions named. Binding seen in cells or lysates may run through a third protein. Some entries that bind do so weakly or less than the wild type. For some assays here: Where a sequence is shown, tags or fusion partners need not be part of it.

B1: myc-FE65^ΔNt (deleting amino acids 1–218) (domain or fragment, UniProt O00213 219-710)
chain: DEDSSWATLSQGSPSYGSPEDTDSFWNPNAFETDSDLPAGWMRVQDTSGTYYWHIPTGTTQWEPPGRASPSQGSSPQEESQLTWTGFAHGEGFEDGEFWKDEPSDEAPMELGLKEPEEGTLTFPAQSLSPEPLPQEEEKLPPRNTNPGIKCFAVRSLGWVEMTEEELAPGRSSVAVNNCIRQLSYHKNNLHDPMSGGWGEGKDLLLQLEDETLKLVEPQSQALLHAQPIISIRVWGVGRDSGRERDFAYVARDKLTQMLKCHVFRCEAPAKNIATSLHEICSKIMAERRNARCLVNGLSLDHSKLVDVPFQVEFPAPKNELVQKFQVYYLGNVPVAKPVGVDVINGALESVLSSSSREQWTPSHVSVAPATLTILHQQTEAVLGECRVRFLSFLAVGRDVHTFAFIMAAGPASFCCHMFWCEPNAASLSEAVQAACMLRYQKCLDARSQASTSCLPAPPAESVARRVGWTVRRGVQSLWGSLKPKRLGAHTP
B1: the binding result in the test with FLAG-tagged Beclin 1 [1] is listed as “binds”.

B2: myc-FE65^ΔPTB1 (deleting amino acids 368–530) (protein, UniProt O00213)
chain: MSVPSSLSQSAINANSHGGPALSLPLPLHAAHNQLLNAKLQATAVGPKDLRSAMGEGGGPEPGPANAKWLKEGQNQLRRAATAHRDQNRNVTLTLAEEASQEPEMAPLGPKGLIHLYSELELSAHNAANRGLRGPGLIISTQEQGPDEGEEKAAGEAEEEEEDDDDEEEEEDLSSPPGLPEPLESVEAPPRPQALTDGPREHSKSASLLFGMRNSAASDEDSSWATLSQGSPSYGSPEDTDSFWNPNAFETDSDLPAGWMRVQDTSGTYYWHIPTGTTQWEPPGRASPSQGSSPQEESQLTWTGFAHGEGFEDGEFWKDEPSDEAPMELGLKEPEEGTLTFPAQSLSPEPLPQEEEKLPPRNTNPGIEFPAPKNELVQKFQVYYLGNVPVAKPVGVDVINGALESVLSSSSREQWTPSHVSVAPATLTILHQQTEAVLGECRVRFLSFLAVGRDVHTFAFIMAAGPASFCCHMFWCEPNAASLSEAVQAACMLRYQKCLDARSQASTSCLPAPPAESVARRVGWTVRRGVQSLWGSLKPKRLGAHTP
B2: the binding entry with FLAG-tagged Beclin 1 [1] is listed as “binds”.

B3: FE65, endogenous in rat brain (protein, UniProt P46933 1-711)
chain: MSVPSSLSQSAINANSHGGPALSFPFPLHAAHNQLLNAKLQATAVVPKDLRSAMGEGSVPEPGPANAKWLKEGQNQLRRAATAHRDQNRNVTLTLAEEASQEAETAPLGPKGLMHLYSELELSAHNAANRGLHGSALIINTQGLGPDEGEEKAAGEVEEEDEDEEEEDEEEEDLSSPQGLPEPLENVEVPSGPQVLTDGPREHSKSASLLFGMRNSAASDEDSSWATLSQGSPSYGSPEDTDSFWNPNAFETDSDLPAGWMRVQDTSGTYYWHIPTGTTQWEPPGRASPSQGNSPQEESQLTWTGFAHQEGFEEGEFWKDEPSEEAPMELGLKDPEEGTLPFSAQSLSPEPVPQEEENLPQRNANPGIKCFAVRSLGWVEMTEEELAPGRSSVAVNNCIRQLSYHKNNLHDPMSGGWGEGKDLLLQLEDETLKLVEPQNQTLLHAQPIVSIRVWGVGRDSGRERDFAYVARDKLTQMLKCHVFRCEAPAKNIATSLHEICSKIMSERRNARCLVNGLSLDHSKLVDVPFQVEFPAPKNELVQKFQVYYLGNVPVAKPVGVDVINGALESVLSSSSREQWTPSHVSVAPATLTILHQQTEAVLGECRVRFLSFLAVGRDVHTFAFIMAAGPASFCCHMFWCEPNAASLSEAVQAACMLRYQKCLDARSQTSTSCLPAPPAESVARRVGWTVRRGVQSLWGSLKPKRLGSQTP
Take B3: the binding result in test [2] is listed as “binds”.

B4: myc-FE65^ΔWW (deleting amino acids 248–290) (protein, UniProt O00213)
chain: MSVPSSLSQSAINANSHGGPALSLPLPLHAAHNQLLNAKLQATAVGPKDLRSAMGEGGGPEPGPANAKWLKEGQNQLRRAATAHRDQNRNVTLTLAEEASQEPEMAPLGPKGLIHLYSELELSAHNAANRGLRGPGLIISTQEQGPDEGEEKAAGEAEEEEEDDDDEEEEEDLSSPPGLPEPLESVEAPPRPQALTDGPREHSKSASLLFGMRNSAASDEDSSWATLSQGSPSYGSPEDTDSFWNPNGSSPQEESQLTWTGFAHGEGFEDGEFWKDEPSDEAPMELGLKEPEEGTLTFPAQSLSPEPLPQEEEKLPPRNTNPGIKCFAVRSLGWVEMTEEELAPGRSSVAVNNCIRQLSYHKNNLHDPMSGGWGEGKDLLLQLEDETLKLVEPQSQALLHAQPIISIRVWGVGRDSGRERDFAYVARDKLTQMLKCHVFRCEAPAKNIATSLHEICSKIMAERRNARCLVNGLSLDHSKLVDVPFQVEFPAPKNELVQKFQVYYLGNVPVAKPVGVDVINGALESVLSSSSREQWTPSHVSVAPATLTILHQQTEAVLGECRVRFLSFLAVGRDVHTFAFIMAAGPASFCCHMFWCEPNAASLSEAVQAACMLRYQKCLDARSQASTSCLPAPPAESVARRVGWTVRRGVQSLWGSLKPKRLGAHTP
Consider B4, for which the binding result in the test with FLAG-tagged Beclin 1 [1] was “binds”.

B5: myc-FE65^ΔPTB2+Ct (deleting amino acids 518–710) (domain or fragment, UniProt O00213 1-517)
chain: MSVPSSLSQSAINANSHGGPALSLPLPLHAAHNQLLNAKLQATAVGPKDLRSAMGEGGGPEPGPANAKWLKEGQNQLRRAATAHRDQNRNVTLTLAEEASQEPEMAPLGPKGLIHLYSELELSAHNAANRGLRGPGLIISTQEQGPDEGEEKAAGEAEEEEEDDDDEEEEEDLSSPPGLPEPLESVEAPPRPQALTDGPREHSKSASLLFGMRNSAASDEDSSWATLSQGSPSYGSPEDTDSFWNPNAFETDSDLPAGWMRVQDTSGTYYWHIPTGTTQWEPPGRASPSQGSSPQEESQLTWTGFAHGEGFEDGEFWKDEPSDEAPMELGLKEPEEGTLTFPAQSLSPEPLPQEEEKLPPRNTNPGIKCFAVRSLGWVEMTEEELAPGRSSVAVNNCIRQLSYHKNNLHDPMSGGWGEGKDLLLQLEDETLKLVEPQSQALLHAQPIISIRVWGVGRDSGRERDFAYVARDKLTQMLKCHVFRCEAPAKNIATSLHEICSKIMAERRNARCLVNGLS
Turning to B5, the binding result with FLAG-tagged Beclin 1 [1] is recorded as “no binding”.

B6: FE65 (wild-type, pCI-FE65wt) (protein, UniProt O00213 1-710)
chain: MSVPSSLSQSAINANSHGGPALSLPLPLHAAHNQLLNAKLQATAVGPKDLRSAMGEGGGPEPGPANAKWLKEGQNQLRRAATAHRDQNRNVTLTLAEEASQEPEMAPLGPKGLIHLYSELELSAHNAANRGLRGPGLIISTQEQGPDEGEEKAAGEAEEEEEDDDDEEEEEDLSSPPGLPEPLESVEAPPRPQALTDGPREHSKSASLLFGMRNSAASDEDSSWATLSQGSPSYGSPEDTDSFWNPNAFETDSDLPAGWMRVQDTSGTYYWHIPTGTTQWEPPGRASPSQGSSPQEESQLTWTGFAHGEGFEDGEFWKDEPSDEAPMELGLKEPEEGTLTFPAQSLSPEPLPQEEEKLPPRNTNPGIKCFAVRSLGWVEMTEEELAPGRSSVAVNNCIRQLSYHKNNLHDPMSGGWGEGKDLLLQLEDETLKLVEPQSQALLHAQPIISIRVWGVGRDSGRERDFAYVARDKLTQMLKCHVFRCEAPAKNIATSLHEICSKIMAERRNARCLVNGLSLDHSKLVDVPFQVEFPAPKNELVQKFQVYYLGNVPVAKPVGVDVINGALESVLSSSSREQWTPSHVSVAPATLTILHQQTEAVLGECRVRFLSFLAVGRDVHTFAFIMAAGPASFCCHMFWCEPNAASLSEAVQAACMLRYQKCLDARSQASTSCLPAPPAESVARRVGWTVRRGVQSLWGSLKPKRLGAHTP
With B6, the binding result is “binds” in the test with FLAG-tagged Beclin 1 [3]; “binds” with FLAG-tagged Beclin 1 [1]; “binds” in the test with GST-Beclin 1; “no binding” in the test with GST-Beclin 1^400–450; “binds” in [4]; “binds” in the test with GST-Beclin 1^350–400. Moreover, the binding entry in test [5] and in test [6] was “binds” each time.

B7: myc-FE65 (protein, UniProt O00213 1-710)
chain: B6 chain
B7: the binding entry with HA-VPS34 is recorded as “no binding”; with FLAG-ATG14L it was “no binding”; with FLAG-VPS15, “no binding”; with FLAG-tagged Beclin 1 [1] it was “binds”.
